In patent publication US20230348569A1:

B1: mAb10935 (antibody)
heavy: EVQLVESGGGLVQPGGSLRLSCAASGFTVSSNYMSWVRQAPGKGLEWVSLIYSGGSTYYADSVKGRFTISRHNSKNTLYLQMNSLRSEDTAVYYCARVPLGDYYYGMDVWGQGTTVTVSS[human IgG1 constant region left out here]
light: DIQMTQSPSSLSASVGDRVTITCQASQDINKYLNWYQQKPGKAPKLLIYDASNLETGVPSRFSGSGSGTDFTFTISSLQPEDIATYYCQQSDNLPLTFGGGTKVEIKRTVAAPSVFIFPPSDEQLKSGTASVVCLLNNFYPREAKVQWKVDNALQSGNSQESVTEQDSKDSTYSLSSTLTLSKADYEKHKVYACEVTHQGLSSPVTKSFNRGEC
B2: mAb10938 (antibody)
heavy: EVQLVESGGGLVQPGGSLRLSCAVSGFTVSSNYMSWVRQAPGKGLEWVSLIYSGGSTFYADSVKGRFTISRHNSKNTLYLQMNSLRAEDTAVYYCAREGGYSYDYNYWGQGTLVTVSS[human IgG1 constant region left out here]
light: B1 light with N30R, K31N, S65I, S91Y, L96I, G100Q, K103R, V104L
B3: mAb10920 (antibody)
heavy: QVQLVESGGGVVQPGRSLRLSCAASGFTFSYYGMHWVRQAPGKGLEWVAVIWYDGSNKFYADSVKGRFTISRDNSKNTLYLQMNSLRAEDTAVYYCAAARPGYYYGMDVWGQGTTVTVSS[human IgG1 constant region left out here]
light: DIQMTQSPSSLSASVGDRVTITCRASQGISNYLAWFQQKPGKAPNSLIYAASSLQRGVPSKFSGSGSGTDFTLTISSLQPEDFATYYCQQYNSYPRTFGQGTKVEIKRTVAAPSVFIFPPSDEQLKSGTASVVCLLNNFYPREAKVQWKVDNALQSGNSQESVTEQDSKDSTYSLSSTLTLSKADYEKHKVYACEVTHQGLSSPVTKSFNRGEC
B4: mAb10921 (antibody)
heavy: EVQLVESGGGLVQPGGSLRLSCAASGITVSSNYMSWVRQAPGKGLEWVSVIYSGGSTFYADSVKGRFTISRHNSKNTLYLQMNSLRAEDTAVYYCARERNFDAFDIWGQGTMVTVSS[human IgG1 constant region left out here]
light: DIQMTQSPSSVSASVGDRVTITCRASQGISSWLAWYQQKPGKAPKLLIYAASSLQSGVPSRFSGSGSGTDFTLTISSLQPEDFATYYCQQANSFPLFTFGPGTKVDIKRTVAAPSVFIFPPSDEQLKSGTASVVCLLNNFYPREAKVQWKVDNALQSGNSQESVTEQDSKDSTYSLSSTLTLSKADYEKHKVYACEVTHQGLSSPVTKSFNRGEC
B5: mAb10930 (antibody)
heavy: EVQLVESGGGLVQPGRSLRLSCAASGFTFDDYAMYWVRQAPGKGLEWVSGISWNSGSIGYADSVKGRFTISRDNAKNSLYLQMNSLRAADTALYYCAKDKDWNSRGYYYYGMDVWGQGTTVTVSS[human IgG1 constant region left out here]
light: [about 100 residues left out here][about 100 residues left out here]

molecular target: T1, SARS-COV-2-S RBD extracellular domain expressed with a C-terminal myc-myc-hexahistidine (SARS-COV-2 RBD-MMH) (SARS-CoV-2); conditions: remark: other sources report otherwise

Q: How did the t½ turn out when B1 was run?
A: 42 s

Q: How did the t½ turn out when B2 was run?
A: 234 s

Q: Which t½ does the source give for B3 here?
A: 12 s

Q: B4 was tested. Which t½ did it give?
A: 36 s

Q: With B5 as the binder, how does the t½ read?
A: 42 s

molecular target: T1, SARS-COV-2-S RBD extracellular domain …; conditions: remark: other sources report otherwise; remark: another data set of the same source

Q: How did the t½ turn out when B1 was run?
A: 24 s and 54 s

Q: With B3 as the binder, how does the t½ read?
A: 24 s

Q: With B5 as the binder, how does the t½ read?
A: 60 s

Residue numbers refer to the chain shown, from its start. “And” between values parts separate entries of the source, which are not always exact repeats. Equal entries are not always repeated.
